The values that follow come from PMC10668032.

The other results are listed elsewhere or left out. At the low end of the ranking, values are background and their order means little.

The target in the experiment is SIX1 homeodomain (reference allele) (UniProt Q15475). The experiment in a line: universal protein binding microarray. Conditions: Universal all-10-mer PBM (8x60K, AMADID 030236), 300 nM GST-tagged protein, Alexa Fluor 488 anti-GST; buffer, salt, pH and temperature not stated; high values mean tight binding; most listed sequences are background and not binding sites; double strand, one strand shown.
Take ATCACCAC: the binding signal amounted to 0.262 E-score.

For AACTTAAG, the binding signal was -0.201 E-score.

In the case of GGAAATGA, the binding signal was -0.0643 E-score.

With CGTCTAAA, the binding signal was -0.0599 E-score.

As for CTTTCGTC, the binding signal was -0.0977 E-score.

Take AGTCTTAT: the binding signal was 0.0596 E-score.

Take ATATTACC: the binding signal came to 0.259 E-score.

In the case of CGCATAAC, the binding signal worked out at 0.00968 E-score.

Turning to TAGTAATA, the binding signal is 0.167 E-score.

As for AAGCGGCA, the binding signal turned out to be 0.0298 E-score.

Turning to CCTAGATA, the binding signal stood at 0.286 E-score.

As for AGCGCGTC, the binding signal was -0.0604 E-score.

Turning to AGGCGGCC, the binding signal is -0.292 E-score.

GTGTGTAA: the binding signal was -0.0422 E-score.

As to AGACCACA, the binding signal was -0.0481 E-score.

On to GCGAGCCA, for which the binding signal was -0.175 E-score.

In the case of ATTACAGC, the binding signal is -0.0197 E-score.

For the sequence CGACAGTA, the binding signal is -0.0907 E-score.

Consider CGTAGGGA, for which the binding signal turned out to be 0.138 E-score.

Regarding CGGAAAGC, the binding signal is -0.143 E-score.

Turning to CGGCGGTC, the binding signal was -0.148 E-score.

Turning to AACAGTTA, the binding signal was -0.251 E-score.

As to GCCGTAAC, the binding signal was -0.232 E-score.

In the case of CCAGCCGC, the binding signal was -0.0163 E-score.

Consider ATGACTAC, for which the binding signal is 0.0471 E-score.

ATGCTTCG: the binding signal is -0.155 E-score.

Regarding CTGTGTAC, the binding signal is -0.135 E-score.

In the case of CAAGTATA, the binding signal was found to be 0.141 E-score.

As to CCATGCAC, the binding signal worked out at 0.0772 E-score.

For the sequence TGCACCAA, the binding signal is -0.181 E-score.

Take ACTAGTAA: the binding signal is -0.159 E-score.

With ACAGTAAA, the binding signal is -0.08 E-score.

In the case of AGGCTACC, the binding signal was -0.0372 E-score.

Regarding ATCTTCAC, the binding signal came out at 0.144 E-score.

As to AGCAGCAG, the binding signal is -0.0874 E-score.

For CTCATGTA, the binding signal stood at 0.0298 E-score.

For the sequence GCGTGAGC, the binding signal was -0.00547 E-score.

For the sequence TAAAGAAA, the binding signal was -0.247 E-score.

Regarding AACGAGGT, the binding signal was -0.0279 E-score.

In the case of AGCACCCT, the binding signal is -0.114 E-score.

Consider ACTTCAAA, for which the binding signal is -0.207 E-score.

Regarding CACTTTCA, the binding signal is -0.155 E-score.

For GGAGGCAC, the binding signal was -0.127 E-score.

For GAACACGA, the binding signal is 0.00639 E-score.

For CAATTCCC, the binding signal stood at 0.0935 E-score.

CGAAACTA: the binding signal is 0.0974 E-score.

CGCGCGCG: the binding signal is -0.0257 E-score.

Take CGCCGAAC: the binding signal is -0.115 E-score.

On to ATCATCCG, for which the binding signal came to 0.348 E-score.

Consider AGATTTTA, for which the binding signal was -0.173 E-score.

In the case of AAGATGGT, the binding signal was -0.124 E-score.

With ACCAGGAG, the binding signal worked out at 0.0435 E-score.

In the case of AGCCGGGC, the binding signal was -0.166 E-score.

For CCACCCTA, the binding signal stood at 0.0444 E-score.

As to GCGCAGAA, the binding signal was -0.108 E-score.

Regarding CCTCCAAG, the binding signal was -0.135 E-score.

Regarding ACCCATTC, the binding signal was -0.0962 E-score.

Turning to GTAAAAAA, the binding signal was -0.24 E-score.

TCAGATGA: the binding signal amounted to 0.307 E-score.

Regarding AAGACTGA, the binding signal was -0.0827 E-score.

With CTGACTCA, the binding signal was -0.0717 E-score.

Turning to ATTAGTGG, the binding signal stood at 0.00756 E-score.

As for AGCAGCCT, the binding signal is -0.12 E-score.

Consider CTTGGGCC, for which the binding signal is -0.183 E-score.

As for CAACTCAC, the binding signal was -0.0755 E-score.

Take ATGCCCGC: the binding signal was 0.0458 E-score.

For AGATTAAG, the binding signal was determined as 0.0533 E-score.

With ATAGCAGA, the binding signal was 0.118 E-score.

AGATCGAG: the binding signal is 0.113 E-score.

Regarding CAACGGTG, the binding signal was found to be 0.0942 E-score.

Consider AACATGAG, for which the binding signal worked out at 0.0797 E-score.

As to ACTCGGAC, the binding signal was -0.111 E-score.

With CCTGCGCG, the binding signal is -0.0477 E-score.

Regarding GGTCGTGA, the binding signal came out at 0.0895 E-score.

As to ACCGTTAT, the binding signal was -0.038 E-score.

As to CGGAATTC, the binding signal was -0.104 E-score.

Regarding ATGACACC, the binding signal worked out at 0.471 E-score.

As for ACGGTATC, the binding signal was found to be 0.461 E-score.

With ATGGTACG, the binding signal was -0.0554 E-score.

For GAGGAAAC, the binding signal is -0.172 E-score.

Take AAAGGTTA: the binding signal is -0.249 E-score.

For AGTGCCCC, the binding signal is -0.0655 E-score.

Turning to CTGGCTTA, the binding signal was -0.0297 E-score.

Regarding TGAGCCAA, the binding signal was -0.122 E-score.

Consider AGGCCCCG, for which the binding signal was -0.178 E-score.

In the case of AGAGGTGC, the binding signal was -0.068 E-score.

Consider AGACTTAC, for which the binding signal was -0.0941 E-score.

In the case of AAGCGCAA, the binding signal is -0.209 E-score.

Regarding GAAGACTA, the binding signal is -0.248 E-score.

Turning to CGTACAAC, the binding signal is -0.184 E-score.

Take ATTATGTC: the binding signal is -0.144 E-score.

On to CGGCTGTC, for which the binding signal is -0.0475 E-score.

In the case of GTTTGGAA, the binding signal is -0.126 E-score.

CACTTTAC: the binding signal was -0.153 E-score.

Consider CCCATGCC, for which the binding signal is -0.0127 E-score.

Regarding ACTCCTAG, the binding signal was -0.0257 E-score.

As for ATAGTGCA, the binding signal was 0.163 E-score.

On to AGTAATAA, for which the binding signal is -0.03 E-score.

On to AGCCAGAG, for which the binding signal was -0.0222 E-score.

On to CTATTAAG, for which the binding signal turned out to be 0.00083 E-score.

For the sequence CTAAGACC, the binding signal was -0.151 E-score.

ATATGTTG: the binding signal amounted to 0.225 E-score.

AACTTCAC: the binding signal was -0.147 E-score.

For TCACACCA, the binding signal turned out to be 0.195 E-score.

As for GACAACTC, the binding signal was -0.16 E-score.

Turning to CATGCTAC, the binding signal is -0.0951 E-score.

For the sequence AGATTGTG, the binding signal was -0.0423 E-score.

As to CTTATGGC, the binding signal is -0.325 E-score.

As for TATCTGCA, the binding signal was found to be 0.284 E-score.

For GTCATGAC, the binding signal is -0.0837 E-score.

Turning to GTTCAACA, the binding signal is -0.125 E-score.

Take ATCCTTGC: the binding signal turned out to be 0.2 E-score.

In the case of CCTAGGGC, the binding signal is -0.146 E-score.

On to ATATTAGC, for which the binding signal turned out to be 0.0869 E-score.

Consider AGTCCCGA, for which the binding signal was -0.193 E-score.

With GTCCTAGA, the binding signal was -0.0713 E-score.

Regarding ATTCTTTA, the binding signal was -0.0643 E-score.

Regarding CTTACGTC, the binding signal is -0.247 E-score.

As for CGCCGTGC, the binding signal was -0.0196 E-score.

Consider AGTTCTGA, for which the binding signal is -0.176 E-score.

With GCCCTAGC, the binding signal was -0.0978 E-score.

Regarding GCATCGCA, the binding signal is -0.0758 E-score.

CTTACAAA: the binding signal was -0.192 E-score.

As for GAGACTGC, the binding signal was -0.0229 E-score.

For the sequence ACTGTAAA, the binding signal is -0.0733 E-score.

For the sequence ATGTACAG, the binding signal is -0.112 E-score.

Consider AAAACGGG, for which the binding signal was -0.00222 E-score.

For the sequence CTTCAAGC, the binding signal was -0.188 E-score.

As to ACAACGTG, the binding signal was -0.0482 E-score.

In the case of CATCAGTA, the binding signal amounted to 0.0592 E-score.

Regarding CCTTCTAC, the binding signal was -0.00567 E-score.

Take AGCTCGCC: the binding signal was -0.0781 E-score.

CGCTTGAA: the binding signal was -0.0102 E-score.

Regarding AATGGGGT, the binding signal was 0.042 E-score.

With ACATACTA, the binding signal came out at 0.00856 E-score.

Consider GAACACAC, for which the binding signal was -0.0987 E-score.

Take GGCACCGA: the binding signal is -0.114 E-score.

As to GGCACCAA, the binding signal was -0.00958 E-score.

For the sequence CCGCCTAG, the binding signal came to 0.0347 E-score.

For ATGTGGAA, the binding signal is -0.117 E-score.

Turning to CTATTAAA, the binding signal is -0.0207 E-score.

Regarding CAACTTGG, the binding signal is -0.0801 E-score.

As to CAAGACCA, the binding signal is -0.111 E-score.

GCAAACCA: the binding signal worked out at 0.00225 E-score.

CGACTTAC: the binding signal turned out to be 0.116 E-score.

For the sequence CTTGCGTA, the binding signal turned out to be 0.0072 E-score.

For CTCAGTAA, the binding signal is -0.107 E-score.

With AAAAGCTA, the binding signal is -0.292 E-score.

Turning to CTCATCAC, the binding signal turned out to be 0.0672 E-score.

On to ATTTAATA, for which the binding signal was found to be 0.164 E-score.

With ATCTGGGA, the binding signal stood at 0.196 E-score.

Regarding AAGGAAGT, the binding signal is -0.239 E-score.

As for CCCTTAAC, the binding signal was -0.0779 E-score.

As for CACGGCTG, the binding signal stood at 0.0253 E-score.

With ATGCACAT, the binding signal came to 0.0285 E-score.

For CTTGCGTC, the binding signal is -0.212 E-score.

With ACCCAGGG, the binding signal was -0.0357 E-score.

Regarding CAGGCCAG, the binding signal is -0.0438 E-score.

On to CTTTACTC, for which the binding signal is -0.131 E-score.

Regarding ATTGTGGG, the binding signal is -0.00693 E-score.

Take GGAGCTCC: the binding signal was -0.202 E-score.

As for CAGCAGTA, the binding signal was -0.0779 E-score.

Turning to CTGACGGA, the binding signal is -0.215 E-score.

In the case of GCCAGGCC, the binding signal is -0.299 E-score.

Consider CCACTAAG, for which the binding signal is -0.0459 E-score.

For GGGGGATA, the binding signal is 0.442 E-score.

With ATGGGTAC, the binding signal was -0.0186 E-score.

Turning to TATGCCCA, the binding signal stood at 0.0887 E-score.

On to AATTAGAG, for which the binding signal is -0.105 E-score.

Turning to CATGCTCC, the binding signal is -0.149 E-score.

With CTTCACCC, the binding signal was -0.0463 E-score.

For TAATTGCA, the binding signal is -0.00933 E-score.
